PubChem BioAssay AID1745853 (National Center for Advancing Translational Sciences (NCATS), 2022)
The list shows a part of the results. Shown are side measurements of this screen, not its main read-out; they come without a call.

Assays:
Experiment in all cases: Primary Screen for Target Class Profiling of Small Molecule Inhibitors of Methyltransferases
[1] = molecular target: Glycine N-methyltransferase (Homo sapiens) (UniProt Q14749); details: purified enzyme, MTase-Glo SAH luminescence; measured here: GNMT inhibition; at 40 µM; stronger effect = lower value
Summary of the method: (§1)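 Each enzyme was reacted with SAM and its substrate, with compounds tested once at 40 uM; SAH formed was read by MTase-Glo luminescence.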

[2] = molecular target: Guanidinoacetate N-methyltransferase (Homo sapiens) (UniProt Q14353); details: purified enzyme, MTase-Glo SAH luminescence; measured here: GAMT inhibition; at 40 µM; stronger effect = lower value
Summary of the method: as §1

[3] = molecular target: Histamine N-methyltransferase (Homo sapiens) (UniProt P50135); details: purified enzyme, MTase-Glo SAH luminescence; measured here: HNMT inhibition; at 40 µM; stronger effect = lower value
Summary of the method: as §1

[4] = molecular target: Nicotinamide N-methyltransferase (Homo sapiens) (UniProt P40261); details: purified enzyme, MTase-Glo SAH luminescence; measured here: NNMT inhibition; at 40 µM; stronger effect = lower value
Summary of the method: as §1

[5] = molecular target: Phenylethanolamine N-methyltransferase (Homo sapiens) (UniProt P11086); details: purified enzyme, MTase-Glo SAH luminescence; measured here: PNMT inhibition; at 40 µM; stronger effect = lower value
Summary of the method: as §1
On the % scale 0 is the no-effect control and ±100 the full control effect.

C=CCn1c(=O)c2ccc(C(=O)NC(C)C)cc2n2c(=O)n(CC(=O)Nc3ccc(C)cc3)nc12
activity change, negative = inhibition [1]: 5.97%
activity change, negative = inhibition [2]: 0.376%
activity change, negative = inhibition [3]: 6.19%
activity change, negative = inhibition [4]: 5.83%
activity change, negative = inhibition [5]: 7.63%

CC(C)CCn1c(=O)c2ccc(C(=O)NCC(C)C)cc2n2c(=O)n(Cc3ccc(F)cc3)nc12
activity change, negative = inhibition [1]: 1.69%
activity change, negative = inhibition [2]: 0.083%
activity change, negative = inhibition [3]: 4.57%
activity change, negative = inhibition [4]: 3.49%
activity change, negative = inhibition [5]: 1.67%

Cc1cc2c(c(=O)n(-c3ccc(F)cc3)c(=O)n2CC(=O)Nc2cccc(C#N)c2)n1C
activity change, negative = inhibition [1]: -4.03%
activity change, negative = inhibition [2]: -3.65%
activity change, negative = inhibition [3]: -5.66%
activity change, negative = inhibition [4]: -8.58%
activity change, negative = inhibition [5]: -9.7%

COc1ccc(NS(=O)(=O)c2ccc3c(c2)n(C)c(=O)n3C)cc1
activity change, negative = inhibition [1]: -4.2%
activity change, negative = inhibition [2]: 3.93%
activity change, negative = inhibition [3]: 6.4%
activity change, negative = inhibition [4]: 3.87%
activity change, negative = inhibition [5]: -0.815%

CC1CCCCC1NC(=O)C1(C)Cn2c(nc3ccccc32)C(=O)N1Cc1cccs1 (stereo not given)
activity change, negative = inhibition [1]: 4.39%
activity change, negative = inhibition [2]: 0%
activity change, negative = inhibition [3]: 8.89%
activity change, negative = inhibition [4]: 6.88%
activity change, negative = inhibition [5]: 3.52%

CN1c2cccnc2CN(C(=O)Nc2cccc(C(F)(F)F)c2)CC[C@H]1CO
activity change, negative = inhibition [1]: -0.286%
activity change, negative = inhibition [2]: 1.54%
activity change, negative = inhibition [3]: 1.79%
activity change, negative = inhibition [4]: -5.15%
activity change, negative = inhibition [5]: 3.82%

CCCC1c2ccc(C)n2CCN1C(=O)Nc1ccc(Br)c(C)c1 (stereo not given)
activity change, negative = inhibition [1]: -0.712%
activity change, negative = inhibition [2]: 0.781%
activity change, negative = inhibition [3]: -7.91%
activity change, negative = inhibition [4]: 1.42%
activity change, negative = inhibition [5]: -2.08%

COc1ccc(CN2CCCC3(C2)C(=NC2CCCCC2)NC(=O)N3c2cccnc2)cc1 (stereo not given)
activity change, negative = inhibition [1]: -9.54%
activity change, negative = inhibition [2]: -3.23%
activity change, negative = inhibition [3]: -2.26%
activity change, negative = inhibition [4]: -21.6%
activity change, negative = inhibition [5]: 1.25%

c1coc(-c2noc(CN3CCCC3c3nc(-c4ccncc4)no3)n2)c1 (stereo not given)
activity change, negative = inhibition [1]: -5.42%
activity change, negative = inhibition [2]: -7.67%
activity change, negative = inhibition [3]: -3.27%
activity change, negative = inhibition [4]: -6.96%
activity change, negative = inhibition [5]: 0.694%

Cc1ccc(N2C(=O)c3cc4sccc4n3CC2(C)C(=O)NC2CCCC(C)C2C)cc1C (stereo not given)
activity change, negative = inhibition [1]: -0.575%
activity change, negative = inhibition [2]: 4.9%
activity change, negative = inhibition [3]: -0.296%
activity change, negative = inhibition [4]: -1.06%
activity change, negative = inhibition [5]: -1.02%

CCc1ccc(CN2C(=O)c3sccc3-n3cccc3C2C(=O)NC2CCCCCC2)cc1 (stereo not given)
activity change, negative = inhibition [1]: -1.96%
activity change, negative = inhibition [2]: 0.797%
activity change, negative = inhibition [3]: 0.264%
activity change, negative = inhibition [4]: -3.53%
activity change, negative = inhibition [5]: 0.228%

CSc1ccc(C(=O)c2[nH]c(=O)[nH]c2C)cc1
activity change, negative = inhibition [1]: -11.6%
activity change, negative = inhibition [2]: 9.31%
activity change, negative = inhibition [3]: 6.02%
activity change, negative = inhibition [4]: -7.68%
activity change, negative = inhibition [5]: -0.603%

Cc1ccc(Cn2c(=O)c3ccccc3n3c(CCC(=O)NCc4ccc(F)cc4)nnc23)cc1
activity change, negative = inhibition [1]: -5.69%
activity change, negative = inhibition [2]: 1.81%
activity change, negative = inhibition [3]: -4.79%
activity change, negative = inhibition [4]: 6.38%
activity change, negative = inhibition [5]: -7.62%

Cc1nc(NCCC2CCOC2)c2c(C)nn(C)c2n1 (stereo not given)
activity change, negative = inhibition [1]: -3.06%
activity change, negative = inhibition [2]: -3.11%
activity change, negative = inhibition [3]: -0.469%
activity change, negative = inhibition [4]: -6.22%
activity change, negative = inhibition [5]: -2.29%

O=c1[nH]nc2n1CCC(NS(=O)(=O)c1ccc(Cl)s1)CC2 (stereo not given)
activity change, negative = inhibition [1]: 0.146%
activity change, negative = inhibition [2]: -1.73%
activity change, negative = inhibition [3]: 0.461%
activity change, negative = inhibition [4]: 0.012%
activity change, negative = inhibition [5]: 3.09%
